The supplement of paper PMC8728848
The list shows a part of the results.

Assays:
Test in all cases: glycan array binding signal (z-score within array); higher = stronger binding
Conditions in all cases: glycan notation: IUPAC condensed, linker removed
[1] = biological target: Gal(b1-4)GlcNAc(b1-2)[Gal(b1-4)GlcNAc(b1-6)]Man(a1-6)[GlcNAc(b1-4)][Gal(b1-4)GlcNAc(b1-2)Man(a1-3)]Man(b1-4)GlcNAc(b1-4)GlcNAc
Method in brief: (§1)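 The Consortium for Functional Glycomics database supplied 3228 glycan arrays, of which those lacking an available protein sequence were dropped. The binding signal, a within-array Z-score, was averaged across arrays of the same protein sequence and across linkers. Negative scores can be read as non-binding.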

[2] = biological target: Gal(b1-4)GlcNAc(b1-2)[Gal(b1-4)GlcNAc(b1-6)]Man(a1-6)[GlcNAc(b1-4)][Gal(b1-4)GlcNAc(b1-2)[Gal(b1-4)GlcNAc(b1-4)]Man(a1-3)]Man(b1-4)GlcNAc(b1-4)[Fuc(a1-6)]GlcNAc
Method in brief: as §1

[3] = biological target: Gal(b1-4)GlcNAc(b1-3)Gal(b1-3)GalNAc
Method in brief: as §1

[4] = biological target: Gal(b1-4)GlcNAc(b1-3)Gal(b1-3)GlcNAc
Method in brief: as §1

[5] = biological target: Gal(b1-4)GlcNAc(b1-3)Gal(b1-4)Glc
Method in brief: as §1

[6] = biological target: Gal(b1-4)GlcNAc(b1-3)Gal(b1-4)GlcNAc
Method in brief: as §1

[7] = biological target: Gal(b1-4)GlcNAc(b1-3)Gal(b1-4)GlcNAc(b1-2)Man(a1-3)[Gal(b1-4)GlcNAc(b1-3)Gal(b1-4)GlcNAc(b1-2)Man(a1-6)]Man(b1-4)GlcNAc(b1-4)GlcNAc
Method in brief: as §1

[8] = biological target: Gal(b1-4)GlcNAc(b1-3)Gal(b1-4)GlcNAc(b1-2)Man(a1-3)[Gal(b1-4)GlcNAc(b1-3)Gal(b1-4)GlcNAc(b1-2)Man(a1-6)]Man(b1-4)GlcNAc(b1-4)[Fuc(a1-6)]GlcNAc
Method in brief: as §1

[9] = biological target: Gal(b1-4)GlcNAc(b1-3)Gal(b1-4)GlcNAc(b1-2)[Gal(b1-4)GlcNAc(b1-3)Gal(b1-4)GlcNAc(b1-6)]Man(a1-6)[Gal(b1-4)GlcNAc(b1-3)Gal(b1-4)GlcNAc(b1-2)Man(a1-3)]Man(b1-4)GlcNAc(b1-4)GlcNAc
Method in brief: as §1

[10] = biological target: Gal(b1-4)GlcNAc(b1-3)Gal(b1-4)GlcNAc(b1-2)[Gal(b1-4)GlcNAc(b1-3)Gal(b1-4)GlcNAc(b1-6)]Man(a1-6)[Gal(b1-4)GlcNAc(b1-3)Gal(b1-4)GlcNAc(b1-2)Man(a1-3)]Man(b1-4)GlcNAc(b1-4)[Fuc(a1-6)]GlcNAc
Method in brief: as §1

[11] = biological target: Gal(b1-4)GlcNAc(b1-3)Gal(b1-4)GlcNAc(b1-3)Gal(b1-4)GlcNAc
Method in brief: as §1

[12] = biological target: Gal(b1-4)GlcNAc(b1-3)Gal(b1-4)GlcNAc(b1-3)Gal(b1-4)GlcNAc(b1-2)Man(a1-3)[Gal(b1-4)GlcNAc(b1-3)Gal(b1-4)GlcNAc(b1-3)Gal(b1-4)GlcNAc(b1-2)Man(a1-6)]Man(b1-4)GlcNAc(b1-4)GlcNAc
Method in brief: as §1

[13] = biological target: Gal(b1-4)GlcNAc(b1-3)Gal(b1-4)GlcNAc(b1-3)Gal(b1-4)GlcNAc(b1-2)Man(a1-3)[Gal(b1-4)GlcNAc(b1-3)Gal(b1-4)GlcNAc(b1-3)Gal(b1-4)GlcNAc(b1-2)Man(a1-6)]Man(b1-4)GlcNAc(b1-4)[Fuc(a1-6)]GlcNAc
Method in brief: as §1

[14] = biological target: Gal(b1-4)GlcNAc(b1-3)Gal(b1-4)GlcNAc(b1-3)Gal(b1-4)GlcNAc(b1-2)[Gal(b1-4)GlcNAc(b1-3)Gal(b1-4)GlcNAc(b1-3)Gal(b1-4)GlcNAc(b1-6)]Man(a1-6)[Gal(b1-4)GlcNAc(b1-3)Gal(b1-4)GlcNAc(b1-3)Gal(b1-4)GlcNAc(b1-2)Man(a1-3)]Man(b1-4)GlcNAc(b1-4)[Fuc(a1-6)]GlcNAc
Method in brief: as §1

[15] = biological target: Gal(b1-4)GlcNAc(b1-3)Gal(b1-4)GlcNAc(b1-3)Gal(b1-4)GlcNAc(b1-3)Gal(b1-4)GlcNAc(b1-2)Man(a1-3)[Gal(b1-4)GlcNAc(b1-3)Gal(b1-4)GlcNAc(b1-3)Gal(b1-4)GlcNAc(b1-3)Gal(b1-4)GlcNAc(b1-2)Man(a1-6)]Man(b1-4)GlcNAc(b1-4)GlcNAc
Method in brief: as §1

[16] = biological target: Gal(b1-4)GlcNAc(b1-3)Gal(b1-4)GlcNAc(b1-3)Gal(b1-4)GlcNAc(b1-3)Gal(b1-4)GlcNAc(b1-2)Man(a1-3)[Gal(b1-4)GlcNAc(b1-3)Gal(b1-4)GlcNAc(b1-3)Gal(b1-4)GlcNAc(b1-3)Gal(b1-4)GlcNAc(b1-2)Man(a1-6)]Man(b1-4)GlcNAc(b1-4)[Fuc(a1-6)]GlcNAc
Method in brief: as §1

[17] = biological target: Gal(b1-4)GlcNAc(b1-3)Gal(b1-4)GlcNAc(b1-3)Gal(b1-4)GlcNAc(b1-3)Gal(b1-4)GlcNAc(b1-2)[Gal(b1-4)GlcNAc(b1-3)Gal(b1-4)GlcNAc(b1-3)Gal(b1-4)GlcNAc(b1-3)Gal(b1-4)GlcNAc(b1-6)]Man(a1-6)[Gal(b1-4)GlcNAc(b1-3)Gal(b1-4)GlcNAc(b1-3)Gal(b1-4)GlcNAc(b1-3)Gal(b1-4)GlcNAc(b1-2)Man(a1-3)]Man(b1-4)GlcNAc(b1-4)[Fuc(a1-6)]GlcNAc
Method in brief: as §1

[18] = biological target: Gal(b1-4)GlcNAc(b1-3)Gal(b1-4)GlcNAc(b1-3)Gal(b1-4)GlcNAc(b1-3)Gal(b1-4)GlcNAc(b1-3)Gal(b1-4)GlcNAc(b1-2)Man(a1-3)[Gal(b1-4)GlcNAc(b1-3)Gal(b1-4)GlcNAc(b1-3)Gal(b1-4)GlcNAc(b1-3)Gal(b1-4)GlcNAc(b1-3)Gal(b1-4)GlcNAc(b1-2)Man(a1-6)]Man(b1-4)GlcNAc(b1-4)GlcNAc
Method in brief: as §1

[19] = biological target: Gal(b1-4)GlcNAc(b1-3)Gal(b1-4)GlcNAc(b1-3)Gal(b1-4)GlcNAc(b1-3)Gal(b1-4)GlcNAc(b1-3)Gal(b1-4)GlcNAc(b1-2)Man(a1-3)[Gal(b1-4)GlcNAc(b1-3)Gal(b1-4)GlcNAc(b1-3)Gal(b1-4)GlcNAc(b1-3)Gal(b1-4)GlcNAc(b1-3)Gal(b1-4)GlcNAc(b1-2)Man(a1-6)]Man(b1-4)GlcNAc(b1-4)[Fuc(a1-6)]GlcNAc
Method in brief: as §1

[20] = biological target: Gal(b1-4)GlcNAc(b1-3)Gal(b1-4)GlcNAc(b1-3)Gal(b1-4)GlcNAc(b1-3)Gal(b1-4)GlcNAc(b1-3)Gal(b1-4)GlcNAc(b1-2)[Gal(b1-4)GlcNAc(b1-3)Gal(b1-4)GlcNAc(b1-3)Gal(b1-4)GlcNAc(b1-3)Gal(b1-4)GlcNAc(b1-3)Gal(b1-4)GlcNAc(b1-6)]Man(a1-6)[Gal(b1-4)GlcNAc(b1-3)Gal(b1-4)GlcNAc(b1-3)Gal(b1-4)GlcNAc(b1-3)Gal(b1-4)GlcNAc(b1-3)Gal(b1-4)GlcNAc(b1-2)Man(a1-3)]Man(b1-4)GlcNAc(b1-4)[Fuc(a1-6)]GlcNAc
Method in brief: as §1

[21] = biological target: Gal(b1-4)GlcNAc(b1-3)Gal(b1-4)GlcNAc(b1-3)Gal(b1-4)GlcNAc(b1-3)Gal(b1-4)GlcNAc(b1-3)Gal(b1-4)GlcNAc(b1-3)Gal(b1-4)GlcNAc(b1-2)Man(a1-3)[Gal(b1-4)GlcNAc(b1-3)Gal(b1-4)GlcNAc(b1-3)Gal(b1-4)GlcNAc(b1-3)Gal(b1-4)GlcNAc(b1-3)Gal(b1-4)GlcNAc(b1-3)Gal(b1-4)GlcNAc(b1-2)Man(a1-6)]Man(b1-4)GlcNAc(b1-4)GlcNAc
Method in brief: as §1

[22] = biological target: Gal(b1-4)GlcNAc(b1-3)Gal(b1-4)GlcNAc(b1-3)GalNAc
Method in brief: as §1

[23] = biological target: Gal(b1-4)GlcNAc(b1-3)Gal(b1-4)GlcNAc(b1-3)[Gal(b1-4)GlcNAc(b1-3)Gal(b1-4)GlcNAc(b1-6)]GalNAc
Method in brief: as §1

[24] = biological target: Gal(b1-4)GlcNAc(b1-3)Gal(b1-4)GlcNAc(b1-6)[Gal(b1-3)]GalNAc
Method in brief: as §1

[25] = biological target: Gal(b1-4)GlcNAc(b1-3)Gal(b1-4)[Fuc(a1-3)]GlcNAc(b1-3)Gal(b1-4)[Fuc(a1-3)]GlcNAc
Method in brief: as §1

[26] = biological target: Gal(b1-4)GlcNAc(b1-3)GalNAc
Method in brief: as §1

[27] = biological target: Gal(b1-4)GlcNAc(b1-3)[Fuc(a1-3)GlcNAc(b1-6)]Gal(b1-4)Glc
Method in brief: as §1

[28] = biological target: Gal(b1-4)GlcNAc(b1-3)[Gal(b1-4)GlcNAc(b1-6)]Gal(b1-4)GlcNAc
Method in brief: as §1

[29] = biological target: Gal(b1-4)GlcNAc(b1-3)[GlcNAc(b1-6)]Gal(b1-4)GlcNAc
Method in brief: as §1

[30] = biological target: Gal(b1-4)GlcNAc(b1-6)Gal(b1-4)GlcNAc
Method in brief: as §1

[31] = biological target: Gal(b1-4)GlcNAc(b1-6)GalNAc
Method in brief: as §1

[32] = biological target: Gal(b1-4)GlcNAc(b1-6)[Gal(b1-3)]GalNAc
Method in brief: as §1

[33] = biological target: Gal(b1-4)GlcNAc(b1-6)[Gal(b1-4)GlcNAc(b1-3)]GalNAc
Method in brief: as §1

[34] = biological target: Gal(b1-4)GlcNAc6P
Method in brief: as §1

[35] = biological target: Gal(b1-6)Gal
Method in brief: as §1

[36] = biological target: Gal3S(b1-3)GalNAc
Method in brief: as §1

[37] = biological target: Gal3S(b1-3)GlcNAc
Method in brief: as §1

[38] = biological target: Gal3S(b1-3)[Fuc(a1-4)]GlcNAc
Method in brief: as §1

B1: SBD-G4S3-Fc (protein)
chain: MASIPSSASVQLDSYNYDGSTFSGKIYVKNIAYSKKVTVVYADGSDNWNNNGNIIAASFSGPISGSNYEYWTFSASVKGIKEFYIKYEVSGKTYYDNNNSANYQVSTGGGGSGGGGSGGGGSEFVPRDCGCKPCICTVPEVSSVFIFPPKPKDVLTITLTPKVTCVVVDISKDDPEVQFSWFVDDVEVHTAQTQPREEQFNSTFRSVSELPIMHQDWLNGKEFKCRVNSAAFPAPIEKTISKTKGRPKAPQVYTIPPPKEQMAKDKVSLTCMITDFFPEDITVEWQWNGQPAENYKNTQPIMDTDGSYFVYSKLNVQKSNWEAGNTFTCSVLHEGLHNHHTEKSLSHSPGAA
[1]
  glycan array binding signal (z-score): 0.227
[2]
  glycan array binding signal (z-score): -0.151
[3]
  glycan array binding signal (z-score): -0.04
[4]
  glycan array binding signal (z-score): 0.422
[5]
  glycan array binding signal (z-score): -0.301
[6]
  glycan array binding signal (z-score): -0.054
[7]
  glycan array binding signal (z-score): 8.04
[8]
  glycan array binding signal (z-score): 0.725
[9]
  glycan array binding signal (z-score): 0.385
[10]
  glycan array binding signal (z-score): 0.249
[11]
  glycan array binding signal (z-score): -0.246
[12]
  glycan array binding signal (z-score): 0.658
[13]
  glycan array binding signal (z-score): 0.765
[14]
  glycan array binding signal (z-score): 0.165
[15]
  glycan array binding signal (z-score): -0.055
[16]
  glycan array binding signal (z-score): 0.041
[17]
  glycan array binding signal (z-score): 0.192
[18]
  glycan array binding signal (z-score): 1.16
[19]
  glycan array binding signal (z-score): 0.995
[20]
  glycan array binding signal (z-score): 0.937
[21]
  glycan array binding signal (z-score): 0.259
[22]
  glycan array binding signal (z-score): 0.227
[23]
  glycan array binding signal (z-score): 0.351
[24]
  glycan array binding signal (z-score): 0.001
[25]
  glycan array binding signal (z-score): -0.383
[26]
  glycan array binding signal (z-score): -0.387
[27]
  glycan array binding signal (z-score): -0.069
[28]
  glycan array binding signal (z-score): -0.023
[29]
  glycan array binding signal (z-score): -0.008
[30]
  glycan array binding signal (z-score): -0.033
[31]
  glycan array binding signal (z-score): -0.065
[32]
  glycan array binding signal (z-score): -0.289
[33]
  glycan array binding signal (z-score): 0.349
[34]
  glycan array binding signal (z-score): -0.307
[35]
  glycan array binding signal (z-score): -0.372
[36]
  glycan array binding signal (z-score): -0.176
[37]
  glycan array binding signal (z-score): 0.08
[38]
  glycan array binding signal (z-score): -0.207
